# Source: the supplement of paper PMC8728848
# The other results are listed elsewhere or left out.
# B1: Pa IMPa (Pseudomonas aeruginosa), Q9I5W4 (protein)
# chain: MSLSTTAFPSLQGENMSRSPIPRHRALLAGFCLAGALSAQAATQEEILDAALVSGDSSQLTDSHLVALRLQQQVERIRQTRTQLLDGLYQNLSQAYDPGAASMWVLPANPDNTLPFLIGDKGRVLASLSLEAGGRGLAYGTNVLTQLSGTNAAHAPLLKRAVQWLVNGDPGAATAKDFKVSVVGVDKTAALNGLKSAGLQPADAACNALTDASCASTSKLLVLGNGASAASLSATVRARLQAGLPILFVHTNGWNQSSTGQQILAGLGLQEGPYGGNYWDKDRVPSSRTRTRSVELGGAYGQDPALVQQIVDGSWRTDYDWSKCTSYVGRTTCDDVPGLSDFSKRVDVLKGALDAYNQKAQNLFALPGTTSLRLWLLWADAVRQNIRYPMDKAADTARFQETFVADAIVGYVREAGAAQKELGSYAGQRQQSMPVSGSEETLTLTLPSAQGFTAIGRMAAPGKRLSIRIEDAGQASLAVGLNTQRIGSTRLWNTRQYDRPRFLKSPDIKLQANQSVALVSPYGGLLQLVYSGATPGQTVTVKVTGAASQPFLDIQPGEDSSQAIADFIQALDADKADWLEIRSGSVEVHAKVEKVRGSIDKDYGGDVQRFIRELNEVFIDDAYTLAGFAIPNQAKTPAIQQECAARGWDCDSETLHKLPGTQHINVDQYAQCGGGCSGNPYDQTWGLNPRGWGESHELGHNLQVNRLKVYGGRSGEISNQIFPLHKDWRVLREFGQNLDDTRVNYRNAYNLIVAGRAEADPLAGVYKRLWEDPGTYALNGERMAFYTQWVHYWADLKNDPLQGWDIWTLLYLHQRQVDKSDWDANKAALGYGTYAQRPGNSGDASSTDGNDNLLLGLSWLTQRDQRPTFALWGIRTSAAAQAQVAAYGFAEQPAFFYANNRTNEYSTVKLLDMSQGSPAWPFP
# Experiments:
# Assay in all cases: glycan array binding signal (z-score within array); higher = stronger binding
# Settings in all cases: glycan notation: IUPAC condensed, linker removed
# [1] = biological target: Fuc(a1-2)Gal(b1-4)GlcNAc(b1-3)Gal(b1-4)GlcNAc(b1-3)Gal(b1-4)GlcNAc
# Procedure, shortened: (§1)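 Glycan array data were curated from 3228 arrays in the Consortium for Functional Glycomics database and kept only where the protein sequence was available. Glycan names were converted to IUPAC-condensed notation, and columns mapping to the same glycan were averaged. The binding signal is a within-array Z-score, averaged across arrays of the same protein sequence at different concentrations or buffers and across linkers. Negative Z-scores can be read as non-binding.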
# [2] = biological target: Fuc(a1-2)Gal(b1-4)GlcNAc(b1-3)GalNAc
# Procedure, shortened: as §1
# [3] = biological target: Fuc(a1-2)Gal(b1-4)GlcNAc(b1-3)[Fuc(a1-2)Gal(b1-4)GlcNAc(b1-6)]GalNAc
# Procedure, shortened: as §1
# [4] = biological target: Fuc(a1-2)Gal(b1-4)GlcNAc(b1-3)[Fuc(a1-3)[Gal(b1-4)]GlcNAc(b1-6)]Gal(b1-4)Glc
# Procedure, shortened: as §1
# [5] = biological target: Fuc(a1-2)Gal(b1-4)GlcNAc(b1-6)GalNAc
# Procedure, shortened: as §1
# [6] = biological target: Fuc(a1-2)Gal(b1-4)GlcNAc6S
# Procedure, shortened: as §1
# [7] = biological target: Fuc(a1-2)Gal(b1-4)[Fuc(a1-3)]GlcNAc
# Procedure, shortened: as §1
# [8] = biological target: Fuc(a1-2)Gal(b1-4)[Fuc(a1-3)]GlcNAc(b1-2)Man(a1-3)[Fuc(a1-2)Gal(b1-4)[Fuc(a1-3)]GlcNAc(b1-2)Man(a1-6)]Man(b1-4)GlcNAc(b1-4)[Fuc(a1-6)]GlcNAc
# Procedure, shortened: as §1
# [9] = biological target: Fuc(a1-2)Gal(b1-4)[Fuc(a1-3)]GlcNAc(b1-2)[Fuc(a1-2)Gal(b1-4)[Fuc(a1-3)]GlcNAc(b1-4)]Man(a1-3)[Fuc(a1-2)Gal(b1-4)[Fuc(a1-3)]GlcNAc(b1-2)Man(a1-6)]Man(b1-4)GlcNAc(b1-4)GlcNAc
# Procedure, shortened: as §1
# [10] = biological target: Fuc(a1-2)Gal(b1-4)[Fuc(a1-3)]GlcNAc(b1-3)Gal(b1-4)[Fuc(a1-3)]GlcNAc
# Procedure, shortened: as §1
# [11] = biological target: Fuc(a1-2)Gal(b1-4)[Fuc(a1-3)]GlcNAc(b1-3)Gal(b1-4)[Fuc(a1-3)]GlcNAc(b1-3)Gal(b1-4)[Fuc(a1-3)]GlcNAc
# Procedure, shortened: as §1
# [12] = biological target: Fuc(a1-2)Gal(b1-4)[Fuc(a1-3)]GlcNAc(b1-3)GalNAc
# Procedure, shortened: as §1
# [13] = biological target: Fuc(a1-2)Gal(b1-4)[Fuc(a1-3)]GlcNAc(b1-3)[Neu5Ac(a2-6)Gal(b1-4)GlcNAc(b1-6)]Gal(b1-4)Glc
# Procedure, shortened: as §1
# [14] = biological target: Fuc(a1-2)Gal3S(b1-4)GlcNAc
# Procedure, shortened: as §1
# [15] = biological target: Fuc(a1-2)Gal6S(b1-3)GlcNAc
# Procedure, shortened: as §1
# [16] = biological target: Fuc(a1-2)Gal6S(b1-3)GlcNAc6S
# Procedure, shortened: as §1
# [17] = biological target: Fuc(a1-2)Gal6S(b1-4)Glc
# Procedure, shortened: as §1
# [18] = biological target: Fuc(a1-2)Gal6S(b1-4)Glc6S
# Procedure, shortened: as §1
# [19] = biological target: Fuc(a1-2)[Gal(a1-3)]Gal
# Procedure, shortened: as §1
# [20] = biological target: Fuc(a1-2)[Gal(a1-3)]Gal(b1-3)GalNAc
# Procedure, shortened: as §1
# [21] = biological target: Fuc(a1-2)[Gal(a1-3)]Gal(b1-3)GalNAc(b1-3)Gal(a1-4)Gal(b1-4)Glc
# Procedure, shortened: as §1
# [22] = biological target: Fuc(a1-2)[Gal(a1-3)]Gal(b1-3)GlcNAc
# Procedure, shortened: as §1
# [23] = biological target: Fuc(a1-2)[Gal(a1-3)]Gal(b1-3)GlcNAc(b1-2)Man(a1-3)[Fuc(a1-2)[Gal(a1-3)]Gal(b1-3)GlcNAc(b1-2)Man(a1-6)]Man(b1-4)GlcNAc(b1-4)GlcNAc
# Procedure, shortened: as §1
# [24] = biological target: Fuc(a1-2)[Gal(a1-3)]Gal(b1-3)GlcNAc(b1-2)Man(a1-3)[Fuc(a1-2)[Gal(a1-3)]Gal(b1-3)GlcNAc(b1-2)Man(a1-6)]Man(b1-4)GlcNAc(b1-4)[Fuc(a1-6)]GlcNAc
# Procedure, shortened: as §1
# [25] = biological target: Fuc(a1-2)[Gal(a1-3)]Gal(b1-3)GlcNAc(b1-3)GalNAc
# Procedure, shortened: as §1
# [26] = biological target: Fuc(a1-2)[Gal(a1-3)]Gal(b1-3)GlcNAc(b1-6)GalNAc
# Procedure, shortened: as §1
# [27] = biological target: Fuc(a1-2)[Gal(a1-3)]Gal(b1-4)Glc
# Procedure, shortened: as §1
# [28] = biological target: Fuc(a1-2)[Gal(a1-3)]Gal(b1-4)GlcNAc
# Procedure, shortened: as §1
# [29] = biological target: Fuc(a1-2)[Gal(a1-3)]Gal(b1-4)GlcNAc(b1-2)Man
# Procedure, shortened: as §1
# [30] = biological target: Fuc(a1-2)[Gal(a1-3)]Gal(b1-4)GlcNAc(b1-2)Man(a1-3)[Fuc(a1-2)[Gal(a1-3)]Gal(b1-4)GlcNAc(b1-2)Man(a1-6)]Man(b1-4)GlcNAc(b1-4)GlcNAc
# Procedure, shortened: as §1
binder,measurement,setting,value
B1,glycan array binding signal (z-score),[1],0.501
same,glycan array binding signal (z-score),[2],0.047
same,glycan array binding signal (z-score),[3],-0.151
same,glycan array binding signal (z-score),[4],0.221
same,glycan array binding signal (z-score),[5],-0.289
same,glycan array binding signal (z-score),[6],-0.485
same,glycan array binding signal (z-score),[7],-0.138
same,glycan array binding signal (z-score),[8],-0.357
same,glycan array binding signal (z-score),[9],-0.153
same,glycan array binding signal (z-score),[10],0.44
same,glycan array binding signal (z-score),[11],0.068
same,glycan array binding signal (z-score),[12],-0.373
same,glycan array binding signal (z-score),[13],0.266
same,glycan array binding signal (z-score),[14],0.12
same,glycan array binding signal (z-score),[15],0.048
same,glycan array binding signal (z-score),[16],2.91
same,glycan array binding signal (z-score),[17],-0.334
same,glycan array binding signal (z-score),[18],-0.061
same,glycan array binding signal (z-score),[19],-0.102
same,glycan array binding signal (z-score),[20],0.405
same,glycan array binding signal (z-score),[21],-0.276
same,glycan array binding signal (z-score),[22],0.223
same,glycan array binding signal (z-score),[23],-0.054
same,glycan array binding signal (z-score),[24],-0.134
same,glycan array binding signal (z-score),[25],0.134
same,glycan array binding signal (z-score),[26],-0.295
same,glycan array binding signal (z-score),[27],0.454
same,glycan array binding signal (z-score),[28],-0.075
same,glycan array binding signal (z-score),[29],0.066
same,glycan array binding signal (z-score),[30],-0.413
